Test results: paper PMC12136788
Some of the results follow.

B1: ENSG00000013374:stop:overlap|stop_codon|ENSG00000013374|stop_codon|NA|stop_codon (ssRNA)
RNA: GGGAGUUCUACAGUCCGACGAUCAAAGAAAAGAAUAUGGAAUAGCCUUGCCAUGUCUGUUGGACGCUGACAAAUAUUUCUGGUAGGCGCUUUUGUACUUGGUGAACACCAGCUUUAAGGAAGAUGGCCCAGACUAUACAGAACCAACAGAGGAUUGAGCAUCA
B2: chr15:93027272:93027374:+|3pUTR|ENSG00000173575|unk|total|mutant (ssRNA)
RNA: GGGAGUUCUACAGUCCGACGAUCCCAGGAAUCUGUGAGGAUGGUAUUCCCUGGAGUCUGGCUUUGAAAGAUUUCAUUGUUGGCCGAAAUAACAGGUUGAGAAAGAGGGAGUCCGCAUCACCUAAAACCUGCACGUGAACAAGGCAACAGAGGAUUGAGCAUCA
B3: chr5:136975339:136975545:-|3pUTR|ENSG00000152377|msi1|total|mutant (ssRNA)
RNA: GGGAGUUCUACAGUCCGACGAUCAGAGCCCAUCAAAUCCUGAGUGUCAGUUUGUUGUCCCUAUUGCCGAUGAAACCGUGAUGCCGCAAAAACCCCGUAAAUUCUGAAUGCUUUUCCACGCCGACUUAUCUGGAAUGUGAACACCAACAGAGGAUUGAGCAUCA
B4: chr17:58090057:58090109:+|3pUTR|ENSG00000264364|msi1_unk|total|mutant (ssRNA)
RNA: GGGAGUUCUACAGUCCGACGAUCGGGCCGGAUCCGCUUGAAUCUUUUUUUUCUUUACAUUUUUCUCCUGUCUGCUCCCUGCUCCGCCCUCAGUUUCCUCAUUCCUCUGGAGUUCUCUCCGAGCAGCCCCUGUUGUCCGUUGGCCAACAGAGGAUUGAGCAUCA
B5: chr2:210678210:210678332:+|3pUTR|ENSG00000021826|unk|FALSE|unique (ssRNA)
RNA: GGGAGUUCUACAGUCCGACGAUCUUCAUCCAUUUACUAAUACUGUAUUUUUGGUGGACUAGGCUUGCCUAUGUGCUUAUGUGUAGCUUUUUACUUUUUAUGGUGCUGAUUAAUGGUGAUCAAGGUAGGAAAAGUUGCUGUUCUCAACAGAGGAUUGAGCAUCA
B6: chr9:72354534:72354635:-|3pUTR|ENSG00000107372|msi1|total|mutant (ssRNA)
RNA: GGGAGUUCUACAGUCCGACGAUCGUCCCCGUUUUUACUUUUAUUCUUAAAGCAUUCAGUUUUGCUUUCAAUUUUAUGUACCUCCGUUCUGAGUCCGACCUGCAGAUGUGUACAGACCGUUCAUAUUUAUGUAUUGCACAUAAUCAACAGAGGAUUGAGCAUCA
B7: chr15:63071210:63071313:+|3pUTR|ENSG00000140416|unk|FALSE|unique (ssRNA)
RNA: GGGAGUUCUACAGUCCGACGAUCCCUUAAAUGCAAUUUAUUUACUUUUACCACUGUCACAGAAACAUCCACAAGAUACCAGCUAGGUCAGGGGGUGGGGAAAACACAUACAAAAAGGCAAGCCCAUGUCAGGGCGAUCCUGGUCAACAGAGGAUUGAGCAUCA
B8: chr15:52550718:52550819:-|3pUTR|ENSG00000128989|msi1|FALSE|unique (ssRNA)
RNA: GGGAGUUCUACAGUCCGACGAUCUUUAUAUAAACUUUUUAAAUGUAGAAACUUUUUACUUCCACACUCAGUUUUGGAGACCCUAGAAUAAAAGGCUUCAAUACUCUGCAUUCCAUGCCCUCUGCCACCUGCUUUUUUUUCCCCCAACAGAGGAUUGAGCAUCA
B9: chr2:74214837:74214938:+|3pUTR|ENSG00000065911|msi1_unk|FALSE|overlapping (ssRNA)
RNA: GGGAGUUCUACAGUCCGACGAUCCUGUCCUUUUGAGGCUUAGUCAGUUUAUUGGGAAAAUGUUUAGGAUUAUUCCUUGCUAUUAGUACUCAUUUUAUGUAUGUUACCCUUCAGUAAGUUCUCCCCAUUUUAGUUUUCUAGGACCAACAGAGGAUUGAGCAUCA
B10: ENSG00000118705:stop:overlap|stop_codon|ENSG00000118705|stop_codon|NA|stop_codon (ssRNA)
RNA: GGGAGUUCUACAGUCCGACGAUCUGACGUUUCUGGCUGGCAAUCGGAUGCUGGCCCAGCAGGCAGUCAAGAGAACAGCACAUUAGUUCCAGAAGAAAGAUGGAAAUUCUGAAAACUGAAUGUCAAGAAAAGGAGUCAAGAACACAACAGAGGAUUGAGCAUCA
B11: chr10:131940083:131940120:+|CDS_3pUTR|ENSG00000175470|msi1_unk|FALSE|overlapping (ssRNA)
RNA: GGGAGUUCUACAGUCCGACGAUCAUAUAAUGUUUACAGCACCUUUCAAAGUCAUGAACCGGAGUUUGACUAUUUGAAAAGUCUAGAAAUUGAGGAAAAAAUUAAUAAAAUUAGGUGGUUACCACAACAGAAUGCUGCUCAUUUCAACAGAGGAUUGAGCAUCA
B12: ENSG00000136451:be:win_201|CDS|ENSG00000136451|bound_else_gene|NA|bound_elsewhere_windowed (ssRNA)
RNA: GGGAGUUCUACAGUCCGACGAUCAGAAAAACCCAAAACUUCAUUUGUGUGCACUUACUGCAGUAAAGCUUUCAGGGACAGCUAUCACCUGAGGCGCCACGAAUCCUGCCACACAGGGAUCAAGUUGGUGUCCCGGCCAAAGAACAACAGAGGAUUGAGCAUCA
B13: chr9:135932998:135933099:-|3pUTR|ENSG00000130560|unk|FALSE|unique (ssRNA)
RNA: GGGAGUUCUACAGUCCGACGAUCGCUGCUUGAAUUGCCGUGUAGACAUUUGCUUGGAGAGUCCACUUGUUAUUUGACGGAGGUAGGUUUCAACCCAGAGUUAAUGUCAAGCAUGCUAAUUUAACUAGUCACUCACAGAUGACUCAACAGAGGAUUGAGCAUCA
B14: chr12:50175971:50176072:-|3pUTR|ENSG00000050405|msi1|total|mutant (ssRNA)
RNA: GGGAGUUCUACAGUCCGACGAUCCACAGUAUUCUCAGGGUGAAAUUAAACCAACUACCGGCCUUUUUCUUGGGAUGAUUUUCCCGUCUUAAGGUUUGGGGACAUUAUAAACUUGAGUACAUUUGUUGUACACAGUUGAUAUUCCAACAGAGGAUUGAGCAUCA
B15: chr9:133361993:133362109:-|3pUTR|ENSG00000148248|msi1_unk|total|mutant (ssRNA)
RNA: GGGAGUUCUACAGUCCGACGAUCGGCAGGUUUCUGCUCAUAAGUGCUUUUGGAAGUCACCUACCUUUUUAACACAGCCGAACCCGUCCCAACGCGUUUGCAAAUAUUCCCCUGGCCGCCUACUUCCUUACCCCCGAAUAUUGGCAACAGAGGAUUGAGCAUCA
B16: ENSG00000130703:stop:overlap|stop_codon|ENSG00000130703|stop_codon|NA|stop_codon (ssRNA)
RNA: GGGAGUUCUACAGUCCGACGAUCCGUGUGGAUUAUUUGGAAAAGAACUUCACAAGGUGGAAGGACACAUUCAAGACAAAAAGUAGGUCCUUGCCAAGUGUUCAUGGGGCACCACUACAGCCUGUGUGUCCACGUUAGAAGGGCCAACAGAGGAUUGAGCAUCA
B17: chr16:67991837:67991979:-|CDS|ENSG00000167261|control|control|control (ssRNA)
RNA: GGGAGUUCUACAGUCCGACGAUCAACGACACUCAGAAAUUGGCCUGCCUCAUCGGUGUAGAGGGUGGCCACUCGCUGGACAAUAGCCUCUCCAUCUUACGUACCUUCUACAUGCUGGGAGUGCGCUACCUGACGCUCACCCACCAACAGAGGAUUGAGCAUCA
B18: chr2:112659350:112659462:+|CDS|ENSG00000144136|unk|total|mutant (ssRNA)
RNA: GGGAGUUCUACAGUCCGACGAUCCUUGCCAAGGUGGGAGAUUGCAUGGGAGACUCCGGUGACAAACCCUUAAGGCGCAAUAACCGCUAUACUUCCUAUACCAUGGCAAUAUGUGGCAUGCCUCUGGAUUCAUUCCGUGCCAAACAACAGAGGAUUGAGCAUCA
B19: ENSG00000104980:stop:overlap|stop_codon|ENSG00000104980|stop_codon|NA|stop_codon (ssRNA)
RNA: GGGAGUUCUACAGUCCGACGAUCUGCGGACGAGCGAGGUGCUACGGAAGAAGCUUGGGGAGCUGACGGGCACCGUGAAGGAGUAGAGCCUUCACGAAGUCAGUAAAAGUGAUCUCGGCCGGAAAAUCAAGGAGGGCGUGGAGGCAACAGAGGAUUGAGCAUCA
B20: ENSG00000178234:stop:overlap|stop_codon|ENSG00000178234|stop_codon|NA|stop_codon (ssRNA)
RNA: GGGAGUUCUACAGUCCGACGAUCUGUUAUCUGUUUCUAUAAUGAAGCGUUUUCUGCCUUGCUUCGGACAGUGCACAGUGUCAUAGACCGCACGCCAGCACACCUGCUUCAUGAGAUCAUCCUUGUGGAUGAUGAUAGUGACUUCAACAGAGGAUUGAGCAUCA
B21: chr3:122573770:122573871:+|3pUTR|ENSG00000163840|msi1|FALSE|unique (ssRNA)
RNA: GGGAGUUCUACAGUCCGACGAUCUAUUGGGUGCACUUGCCCUGCCACAGUAAUGCUAUAUAUUUCUGAGCAUUGUUUUUCUCUAGAUAAUUUUAUAUUUUUGAGUAUACCCCACUUCCAAGUGUUUUUUGUUUUGUUUUGCUUCAACAGAGGAUUGAGCAUCA
B22: chr20:64083387:64083705:-|CDS|ENSG00000171695|control|control|control (ssRNA)
RNA: GGGAGUUCUACAGUCCGACGAUCCUGAAGCCCGCGCGGAUCCCGGACCCCCUGGACCGCCAAGAGGUGCAGACAAGCCCCGGUAGGGGCGGGGAAAGGGGAGGGGCCCUGCCCGCCUCCGCACACGCCGGACCCCAGCCUCUCCAACAGAGGAUUGAGCAUCA

The binders below were run against MSI1 full-length (mouse, UniProt Q61474 1-362) (assay: nsRBNS (natural sequence RNA bind-n-seq); RBNS binding buffer (assumed for nsRBNS): 25 mM Tris pH 7.5, 150 mM KCl, 3 mM MgCl2, 0.01% Triton X-100, 500 ug/ml BSA, 20 U/ml SUPERase-In, 4 C; UNK is unkempt and MSI1 is Musashi-1; names of the RNAs are library labels; protein concentration not given here; high values mean tight binding).
UniProt Q61474, sequence (Q61474 whole entry): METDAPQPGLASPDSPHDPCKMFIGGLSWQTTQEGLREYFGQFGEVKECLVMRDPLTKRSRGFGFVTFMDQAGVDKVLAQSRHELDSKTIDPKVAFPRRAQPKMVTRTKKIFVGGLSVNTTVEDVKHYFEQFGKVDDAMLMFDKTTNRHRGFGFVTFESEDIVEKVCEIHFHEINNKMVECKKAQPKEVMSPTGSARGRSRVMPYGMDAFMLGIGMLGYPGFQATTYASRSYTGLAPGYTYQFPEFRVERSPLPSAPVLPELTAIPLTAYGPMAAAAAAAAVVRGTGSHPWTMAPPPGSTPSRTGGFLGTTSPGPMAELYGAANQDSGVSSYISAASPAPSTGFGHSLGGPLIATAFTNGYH
Binder B1 has a binding signal of 5.09 enrichment R. B2 was tested, and the binding signal was 0.321 enrichment R. Work on B3 yielded a binding signal of 0.375 enrichment R. Work on B4 yielded a binding signal of 0.767 enrichment R. With B5 the binding signal was 0.85 enrichment R. B6 gave a binding signal of 1.52 enrichment R. B7 was tested, and the binding signal was 1.66 enrichment R. Binder B8 has a binding signal of 3.53 enrichment R. B9 gave a binding signal of 8.19 enrichment R. With B10 the binding signal was 0.559 enrichment R. B11 gave a binding signal of 11 enrichment R. For B12, the binding signal was 0.514 enrichment R. B13 was tested, and the binding signal was 0.456 enrichment R. With B14 the binding signal was 0.337 enrichment R. Work on B15 yielded a binding signal of 0.444 enrichment R. In the case of B16, the binding signal is reported as 0.719 enrichment R. Work on B17 yielded a binding signal of 0.491 enrichment R. B18 gave a binding signal of 0.413 enrichment R. Binder B19 has a binding signal of 0.57 enrichment R. Work on B20 yielded a binding signal of 0.258 enrichment R. B21 was tested, and the binding signal was 9.19 enrichment R. Binder B22 has a binding signal of 0.362 enrichment R.
